Reference: patent US11999806B2, “Broad-spectrum polypeptide against enterovirus and application thereof” (WUHAN INSTITUTE OF VIROLOGY, CHINESE ACADEMY OF SCIENCES, priority 2018, dated 2024)
Several values for one entry are separate records, joined by “and”; a condition that tells them apart may be missing. Identical values can stand only once. Like-named read-outs stand apart in the source and are kept apart here. At least one peptide structure holds a part that was inferred or is arguable (an end, a ring closure or a residue). Some entries repeat one wording, which the source may state once for all of them. No end group written: not given here.

Columns and labels:
CVB5 [1] = test: Anti-CVB5 effect in RD cells, qRT-PCR; type: cell-based, Coxsackievirus B5; settings: for Virus inhibition rate (%): CVB5 MOI=0.01, RD cells, 24 h, qRT-PCR; for effect on CVB5, in words: RD cells
Procedure: • (1) […] were plated in a 24-well cell plate. • (2) After the cells reached 70%-80% confluence, the MEM medium containing 10% serum was replaced with a MEM medium containing 2% serum (0.5 ml/well).

CVA16 [2] = test: Antiviral activity against CVA16 in mice, virus copies in muscle by qRT-PCR; type: in vivo, ICR suckling mice
From the text: (§1) • (1) 8 2-day-old ICR mice were randomly divided into two groups, 4 in each group.
3. The Procedure for Detecting the Antiviral Activity of P1 Against CVA16 in Mice is Similar as the EV71 Experiment.
3. The Procedure for Detecting the Antiviral Activity of CR Against CVA16 in Mice is Similar to the EV71 Experiment.

RD cells = test: Membrane penetration efficiency of fluorescence-labelled polypeptide (immunofluorescence); type: cell-based; settings: fluorescence-labelled polypeptide 1 μM, RD cells with or without EV71 (MOI=0.1), fixed 12 h after addition
EV71 [3] = test: Antiviral activity against EV71 in mice, virus copies in hind limb muscle by qRT-PCR; type: in vivo, ICR suckling mice
From the text: as §1

CVB5 [4] = test: Anti-CVB5 effect in mice, virus copies in hind limb muscle by qRT-PCR; type: in vivo, ICR suckling mice
CVB3 = test: Anti-CVB3 effect in Vero cells, qRT-PCR; type: cell-based, Coxsackievirus B3; settings: for Virus inhibition rate (%): CVB3 MOI 0.01, Vero cells, 24 h, qRT-PCR
Procedure: • (1) Vero cells were plated in a 24-well cell plate. • (2) After the cells reached 70%-80% confluence, the MEM medium containing 10% serum was replaced with a MEM medium containing 2% serum and CVB3 virus, 0.5 ml per well. MOI of the virus was 0.01. Wells without CVB3 virus was set as control group. • (3) After 1 h, polypeptide BP8 was added at a final concentration of 0.25 μM, 0.5 μM and 10 μM, respectively. • (4) Samples were collected 24 hours after virus infection, and RNA was extracted with total RNA extraction kit as follows. • (5) The supernatant in the wells was discarded, then 350 μl of TRK Lysis Buffer was added to each well and the plate was shaken on the shaker for 5 minutes. • (6) 350 μl of 70% ethanol (DEPC-treated) was added to the well and the plate was shaken on the shaker for 5 minutes. • (7) The mixture in the well was transferred to a RNA extraction column and centrifuged at 12000 g for 1 min. • (8) The solution collected in the recovery tube was added back to the column and centrifuged at 12000 g for 1 min. • (9) RNA washing buffer 1 was added to the column and centrifuged at 12,000 g for 30 s. • (10) RNA washing buffer 2 was added to the column and centrifuged at 12,000 g for 1 min. • (11) Step (10) was repeated once. • (12) The column was centrifuged at 12,000 g for 2 min to completely remove residual RNA washing buffer. • (13) 50 μl DEPC-treated H2O was added to the column and centrifuge at 12000 g for 2 min. • (14) 2 μl RNA sample was used according to one step qRT-PCR kit for fluorescence quantification experiment.

CVA16 [5] = type: cell-based, Coxsackievirus A16; settings: CCK-8; for Virus inhibition rate (%): CVA16, RD cells, 24 h
EV71 [6] = type: cell-based, enterovirus 71; settings: EV71 0.1 MOI, RD cells, 24 h, CCK-8
Procedure: • (1) 293T cells were plated in a 24-well cell plate. • (2) After the cells reached 70%-80% confluence, the MEM medium containing 10% serum was replaced with a MEM medium containing 2% serum (0.5 ml/well), and 5 μl of 10^6 PFU/mL EV71 virus per well was added. • (3) After 1 hour, polypeptides P2, 3A-TAT-EP, 3A-EP-DRI and 3A-EP-PEG-PA were added at a final concentration of 0.01 μM, 0.1 μM, 1 μM, and 10 μM, respectively. • (4) Samples were collected 24 hours after virus infection, and RNA was extracted with a total RNA extraction kit. • (5) The supernatant in each well was discarded, then 350 μl of TRK Lysis Buffer was added to the well and the plate was shaken on the shaker for 5 minutes. • (6) 350 μl of 70% ethanol (DEPC-treated) was added to the well and the plate was shaken on the shaker for 5 minutes. • (7) The mixture in the well was transferred to a RNA extraction column and centrifuged at 12000 g for 1 min. • (8) The solution collected in the recovery tube was added back to the column and centrifuged at 12,000 g for 1 min. • (9) RNA washing buffer 1 was added to the column and centrifuged at 12,000 g for 30 s. • (10) RNA washing buffer 2 was added to the column and centrifuged at 12,000 g for 1 min. • (11) Step (10) was repeated once. • (12) The empty column was centrifuged at 12,000 g for 2 min to completely remove residual RNA washing buffer. • (13) 50 μl DEPC-treated water was added to the column and centrifuge at 12000 g for 2 min. • (14) 2 μl RNA sample was used according to one step qRT-PCR kit for fluorescence quantification experiment. 3. […] Then CCK8 kit was used to determine the inhibitory effect of the polypeptide on virus. • (5) The inhibition rate of different concentrations of polypeptides on viral infection was calculated using the following formula: OD means the value of OD450-OD630, inhibition rate=(OD well with treatment−OD well with virus only)×100%/(OD well without treatment−OD well with virus only) […]

[7] = 10 mg/kg i.p. every 12 h for 5 days vs PBS

Molecule: CC(C)C[C@H](NC(=O)[C@H](Cc1c[nH]c2ccccc12)NC(=O)CNC(=O)[C@H](CCCCN)NC(=O)[C@H](CCC(=O)O)NC(=O)[C@H](CCCCN)NC(=O)[C@H](CS)NC(=O)[C@H](Cc1ccc(O)cc1)NC(=O)[C@H](CCC(=O)O)NC(=O)[C@H](CCCNC(=N)N)NC(=O)[C@@H](NC(=O)[C@H](C)NC(=O)[C@H](CCC(=O)O)NC(=O)CNC(=O)[C@H](CO)NC(=O)CNC(=O)[C@H](CCCNC(=N)N)NC(=O)[C@H](CCCNC(=N)N)NC(=O)[C@H](CCCNC(=N)N)NC(=O)[C@H](CCC(N)=O)NC(=O)[C@H](CCCNC(=N)N)NC(=O)[C@H](CCCNC(=N)N)NC(=O)[C@H](CCCCN)NC(=O)[C@H](CCCCN)NC(=O)[C@H](CCCNC(=N)N)NC(=O)CNC(=O)[C@@H](N)Cc1ccc(O)cc1)C(C)C)C(=O)N[C@H](C(=O)N1CCC[C@H]1C(=O)O)C(C)C [BP15]
- Virus inhibition rate (%) (CVB5 [1]; 0.78 μM): −1.814% and 0.1354% and −0.2592%
- Virus inhibition rate (%) (CVB5 [1]; 1.56 μM): 30.96% and 35.1% and 33.45%
- Virus inhibition rate (%) (CVB5 [1]; 3.13 μM): 43.26% and 29.66% and 37.15%
- Virus inhibition rate (%) (CVB5 [1]; 6.25 μM): 56.09% and 38.99% and 46.6%
- effect on CVB5, in words (CVB5 [1]): can significantly inhibit CVB5

Molecule: RRRRRRRRAISDLLAS [P1]
- CVA16 viral load in mice, in words (CVA16 [2]; [7]): can significantly reduce the viral load of CVA16 in mice
- Number of CVA16 virus copys in muscle tissue (Copies/g) (CVA16 [2]; 2-day-old ICR mice, CVA16, 10 mg/kg polypeptide i.p. every 12 h for 5 days, individual animals): 3538852 Copies/g and 5293714 Copies/g and 5875037 Copies/g and 6810972 Copies/g and 228883 Copies/g and 1832418 Copies/g and 71627 Copies/g and 1061937 Copies/g
- ability to penetrate cell membrane (RD cells): good ability to penetrate cell membrane
- EV71 viral load in mice, in words (EV71 [3]; [7]): can significantly reduce the EV71 viral load in mice
- Number of EV71 virus copy in muscle tissue (Copies/g) (EV71 [3]; 2-day-old ICR mice, EV71 i.p., 10 mg/kg polypeptide i.p. every 12 h for 5 days, individual animals, 10 mg/kg): 9.935e+007 Copies/g and 9.702e+007 Copies/g and 4072066.000 Copies/g and 1.203e+007 Copies/g

Molecule: YGRKKRRQRRRGSGEAVREYCK [BP8]
- Number of virus copy in muscle tissue (Copies/g) (CVB5 [4]; 2-day-old ICR suckling mice, CVB5 i.p., 10 mg/kg i.p. every 12 h for 5 days, individual animals, 10 mg/kg): 3.43e+006 Copies/g and 7.00 + 006 Copies/g and 8.53e+006 Copies/g and 7.03e+006 Copies/g and 1.24e+006 Copies/g
- virus copy number lower than blank control group (PBS), times (CVB5 [4]; treatment group vs PBS, muscle, day 5): ~80 times
- Virus inhibition rate (%) (CVB5 [1]; 0.78 μM): 12.95% and 11.4% and 10.26%
- Virus inhibition rate (%) (CVB5 [1]; 1.56 μM): 55.7% and 47.93% and 42.01%
- Virus inhibition rate (%) (CVB5 [1]; 3.13 μM): 51.42% and 41.71% and 45.98%
- Virus inhibition rate (%) (CVB5 [1]; 6.25 μM): 50.22% and 54.15% and 49.8704%
- effect on CVB5, in words (CVB5 [1]): can significantly inhibit CVB5
- Virus inhibition rate (%) (CVB3; 2.5 μM): 40.9035% and 25.51% and 36.02%
- Virus inhibition rate (%) (CVB3; 5 μM): 64.04% and 53.44% and 54.18%
- Virus inhibition rate (%) (CVB3; 10 μM): 87.83% and 86.82% and 93.6386%
- effect on CVB3 replication, in words (CVB3; Vero cells): able to inhibit the replication of CVB3

Molecule: YGRKKRRQRRRGSGEAVREYCKEK [BP10]
- Virus inhibition rate (%) (CVB5 [1]; 0.78 μM): 6.347% and 6.126% and 5.459%
- Virus inhibition rate (%) (CVB5 [1]; 1.56 μM): 58.81% and 54.23% and 56.01%
- Virus inhibition rate (%) (CVB5 [1]; 3.13 μM): 65.56% and 66.97% and 67.24%
- Virus inhibition rate (%) (CVB5 [1]; 6.25 μM): 78.63% and 77.07% and 76.13%
- effect on CVB5, in words (CVB5 [1]): can significantly inhibit CVB5

Molecule: YGRKKRRQRRRGSGEEVRQYCR [ER]
- Virus inhibition rate (%) (CVA16 [5]; 0.15625 μM): 11% and 6.418% and 5.134%
- Virus inhibition rate (%) (CVA16 [5]; 0.3125 μM): 8.619% and 15.22% and 11%
- Virus inhibition rate (%) (CVA16 [5]; 2.5 μM): 44.38% and 24.76% and 34.47%
- Virus inhibition rate (%) (CVA16 [5]; 5 μM): 71.7% and 73.72% and 62.53%
- effect on CVA16, in words (CVA16 [5]; RD cells): can significantly inhibit CVA16
- Virus inhibition rate (%) (EV71 [6]; 1.25 μM): 37.6% and 40.04% and 48.84%
- Virus inhibition rate (%) (EV71 [6]; 2.5 μM): 83.45% and 79.76% and 80.92%
